# Screen size: about 360,000 compounds; about 11,000 (3.1%) were called active. This list was built around the results that the source calls inconclusive (neither active nor inactive); the mix of calls is not that of the screen. Calls come from the whole dose curve; as a rule, active = well fitted inhibition curve with a large enough effect; inconclusive = small, poorly fitted or top-dose-only effect; inactive = no such curve, though single readings can be large or run the other way. Potencies of inconclusive entries are left out as doubtful fits.
# Biological target: Schistosoma mansoni thioredoxin glutathione reductase (TGR) (UniProt Q962Y6)
# Assay: qHTS Assay for the Inhibitors of Schistosoma Mansoni Peroxiredoxins; note: nearly all actives have a fitted effect of over 60% in size
# Settings: purified TGR, DTNB reduction, TNB absorbance 405 nm; activity change, negative = inhibition: at 114 µM (top of the series) unless noted
# Summary of the method: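 Kinetic colorimetric format: TGR-catalysed, NADPH-driven DTNB reduction monitored via TNB absorbance. Enzyme dispensed at 20 nM; compound exposure 15 min at room temperature before reaction start.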
# % is set by controls: 0 for no effect and ±100 for the full control effect; potency is the fitted concentration of half-maximal effect; tags give direction and shape of the fitted curve.
Compound,Potency,"activity change, negative = inhibition"
COc1ccc(C(=O)NCC(=O)N/N=C/c2ccc([N+](=O)[O-])o2)cc1OC,active: 17.8 µM,–
Cc1c(NC(=O)c2ccc(Cl)nc2)cccc1-c1nc2cccnc2s1,–,inactive: 2.63%
CC(C)(C)c1ccc(C(=O)Nn2c(CCC(=O)O)ccc2-c2cccs2)cc1,active: 50.1 µM,–
O=C1C(NS(=O)(=O)c2ccccc2)=C(N2CCN(c3ccc(F)cc3)CC2)C(=O)c2ccccc21,"inconclusive [inhibitor, single point]",–
CCN1CCN(c2ccc(NC(=O)c3ccc([N+](=O)[O-])o3)cc2Cl)CC1,"inconclusive [inhibitor, partial curve]",–
CCN1CCN(C(c2ccccc2F)c2nnnn2Cc2ccc3c(c2)OCO3)CC1 (centres undefined),–,inconclusive: -37.3% [inhibitor]
CCOc1cccc(CNc2ccc(O)cc2)c1OCc1ccc(Cl)cc1Cl,"inconclusive [inhibitor, single point]",–
Cc1nc2sc3c(NCc4ccco4)ncnc3c2c2c1COC(C)(C)C2,"inconclusive [inhibitor, full curve, poor fit]",–
NC(=O)N/N=C/c1ccccc1OC(=O)c1cc2ccccc2oc1=O,"inconclusive [inhibitor, partial curve]",–
Cc1cccc2sc(NC(=O)CN(C)S(=O)(=O)c3ccc(Br)s3)nc12,–,inactive: -9.04%
Cc1cc(C(F)F)n2ncc(C(=O)NCc3ccccc3C(F)(F)F)c2n1,"inconclusive [inhibitor, full curve, poor fit]",–
CCOc1ccc(NC(=O)CC2C(=O)OCCN2CC)cc1 (centres undefined),active: 11.2 µM,–
CN(Cc1ccon1)C(=O)CC1C(=O)NCCN1Cc1cccc(Oc2ccccc2)c1 (centres undefined),"inconclusive [inhibitor, single point]",–
COc1ccc(N2CCN(CC(=O)c3ccc(O)c(C)c3O)CC2)cc1,"inconclusive [inhibitor, partial curve]",–
CN(Cc1cccnc1)C(=O)c1cc(COc2ccc3ncccc3c2)on1,"inconclusive [inhibitor, partial curve]",–
COc1cc(Br)cc(/C=C/c2ccc3cccc(O)c3n2)c1OC,–,inactive: -2.97%
CC1=C(C)/C(=N/OC(=O)c2cccc([N+](=O)[O-])c2)C=CC1=O,active: 11.2 µM,–
COC(=O)c1nc(NC(=O)c2ccc(Br)cc2)n[nH]1,"inconclusive [inhibitor, partial curve]",–
COc1cc(CN2CCNC(=O)C2CC(=O)NCCCC2CCCC2)cc(OC)c1 (centres undefined),"inconclusive [inhibitor, partial curve]",–
